Assay results published in the supplement of paper PMC11417369.
The list shows a part of the results.

tested on: PfHDP1 homeodomain (GST-tagged); test: gcPBM binding intensity (ln(normalized median fluorescence intensity)); higher = stronger DNA binding
How it was run: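 Using an Agilent 4 × 180k array, primer-extended double-stranded 36-bp intergenic genomic probes and negative controls were exposed for 1 h to GST-fused P. falciparum DNA-binding domains expressed in E. coli. Binding was carried out in 1× PBS with 1% milk, 0.2 mg/ml BSA, 0.5% salmon testes DNA and 0.03% Triton X-100, and protein was detected with Alexa488 anti-GST antibody and a 488 nm scan. Binding intensity is the highest Masliner-normalised natural-log median intensity across replicate spots of either probe orientation.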

Sequence | gcPBM binding intensity (ln)
CATTTGCCCAGGCACACACACATAAAAAGAAAAATA [CACACA_site356] | 6.34
AATGTGTAGACACGCACACACAAAAAAATATATATA [CACACA_site5595] | 6.82
AATGTAGAAATGGGTGCACACACATATATAATATAT [CACACA_site8799] | 10.2
GTTTTATTTTCAATGTGTACTTATTATTTGATATAC [XGTACX_site6402] | 6.82
GTACCTATTTCATACACACACACACCCAAACAAACA [CACACA_site976] | 7.5
GAAACAATTTGATATTGTACATAAATAAATAAAAAC [XGTACX_site8869] | 6.88
AACATTGATAAATATAAACACACGAAAACAGACATA [CACACA_site490] | 7.13
TAATTTTTTTTAATAACACACATATAAATATAAATA [CACACA_site6521] | 6.32
CATTTGCACCCGCACACACACATAAAAAGAAAAATA [CACACA_site4350] | 10.7
CTTGTACCTAGAAATACACACAATTCTATAACTTAT [CACACA_site7355] | 6.45
AATATAAATAAAAACACACACACACCGATATATATA [CACACA_site5283] | 7.05
AAGATTAGGTTAATTAGTACTTATTATATTGTAATG [XGTACX_site3653] | 6.06
GATCCATTATTGATCCGTACTTATTCATGTTATATA [XGTACX_site5946] | 6.67
TGTTATAAGATTTATGTACACACATATACACCCCTC [CACACA_site8141] | 7.22
TATATATATATATGTATGCACTTTAATTTTATAAGG | 9.31
TATATATGTATATATACACACAACGGTTATAAATAT [CACACA_site1128] | 7
AGAGAATAAATATAAAGTACATATATAAATATATAT [XGTACX_site5055] | 6.31
GTATATAAAAATTCATGTACATATTATTATTTTTAA [XGTACX_site658] | 6.59
ATGTTATAAATCTTAATATATATATGCAAAAGAGAA [XGTACX_negctrl_site521] | 7.75
ACATATACAAAACACACACACAACGTTTTAATAAAT [CACACA_site1979] | 6.92
CATACATTTAAAAAGTGTACGTATATGAAAAAAGGA [XGTACX_site6512] | 6.82
ACCTTTGTAGTTGGTCCACACACATATATGGAAGAA [CACACA_site8351] | 6.82

Sequence | gcPBM binding intensity (ln)
ACATATATATAATATATATATCATCATATTTTCTTA [CACACA_negctrl_site853] | 6.33
ATATGTGTTATTTATACATGCAGAAGAATATCTATT [TGCATGCA_site828] | 6.64
TGTGTGTGTATATGTGTGCACATATAAAATAGAAGA [GTGCAC_site9714] | 10.5
CTCAATATTATTACTACACACAAATTAAAATTTTCC [CACACA_site4203] | 6.7
TCATTTTTTTGTTTGGTGCGACTTGAAAATTTGATT | 6.95
TTATAACTTTTGAGCACACACAAGCATATAAATATA [CACACA_site6933] | 6.85
TTGTACATCTTTTGCACACGTAATGTTATTATAATA [CACACA_site1258] | 10.7
AAATACTGTAAAAAAGCATGCCACTAATAATAATTA [TGCATGCA_site759] | 6.33
GTATATGTACTATACGCACACACACCCACATATATA [CACACA_site9062] | 7.49
ATATATATTATATGCACACTAATAAGACTATTTAAA [CACACA_site3554] | 9.8
GTACCTATTTCATACACACACACACGCAAACAAACA [CACACA_site6590] | 7.81
ATATAGATTCGACACACACACAAAAAAAAAAAAAAA [CACACA_site7677] | 6.41
TGGTATATTATTTTTTGTACACATAAATGAAACATT [XGTACX_site5345] | 6.73
CGTATATCACCAACTAGTACATATAAATAAATAAAT [XGTACX_site8837] | 6.62
ATATATATAATAAACACACACATATACATAGATGTA [CACACA_site5841] | 6.89
ATATATATATATATATGTACATATTATTATTTTGAT [XGTACX_site4752] | 9.41
AATAATCATGATCAAAGTACGTATGATTAAAAAAAA [XGTACX_site4916] | 6.68
TATGACCTTAGTAATTGTACACAAACATATTAATAT [XGTACX_site3340] | 6.48
GAGTATATGATATATATATATATATAAAAAAAAAAA [GTGCAC_negctrl_site99] | 6.78
TATATGTAAATGGACACACACATATATATATATATA [CACACA_site3659] | 9.29
TTATAATATTCATAAGGTACAGTTTATATATGTTAT [XGTACX_site8442] | 6.11
TTGAGTTGTATAAAAAGTACAAGGTTTTAACTAAAT [XGTACX_site1447] | 6.43
